Counter-ions that a name gives are not always drawn. ± gives the standard deviation of the averaged measurements. Over roughly 2,600 compounds, “total cell number (DAPI+ nuclei) relative to DMSO vehicle control” has its median near -1.4; the lowest 2% begin near -23. Some of the results follow.

The subject of this experiment is jimpy (Plp1 jimpy) mouse iPSC-derived oligodendrocyte progenitor cells. The experiment can be described thus: total cell number (DAPI+ nuclei) relative to DMSO vehicle control (SDs above negative control mean); higher = more surviving cells. The note with it: 10 µM; 3 days.
For `CN(C)CCC=C1c2ccccc2COc2ccccc21` [Doxepin hydrochloride], the total cell number was -4.35.
The same measure for `O=C(O)CCNC(=O)c1ccccc1` [Betamipron]: -0.864; for `O=C(N[C@H](CO)[C@H](O)c1ccc([N+](=O)[O-])cc1)C(Cl)Cl` [Chloramphenicol]: 1.99.
`CO[C@H]1/C=C\C=C(/C)C(=O)NC2=CC(=O)C(NCCN(C)C)=C(C[C@@H](C)C[C@H](OC)[C@H](O)[C@@H](C)/C=C(\C)[C@@H]1OC(N)=O)C2=O` [17-DMAG (Alvespimycin) HCl] had a total cell number of -26.5.
The same measure for `CCC[C@@H]1C[C@@H](C(=O)N[C@@H]([C@H]2O[C@H](SC)[C@H](O)[C@@H](O)[C@H]2O)[C@H](C)Cl)N(C)C1` [Clindamycin]: -1.66; for `CCC[C@@H]1C[C@@H](C(=O)N[C@@H]([C@H]2O[C@H](SC)[C@H](O)[C@@H](O)[C@H]2O)[C@H](C)Cl)N(C)C1` [Clindamycin HCl]: -0.134.
As for `CC(=O)N[C@@H](Cc1c[nH]c2ccccc12)C(=O)OCc1cc(C(F)(F)F)cc(C(F)(F)F)c1`, the figure is -0.0963.
As for `CCN(CC)CCOC(=O)c1cc(Cl)c(N)cc1OC` [SDZ-205,557 hydrochloride], the figure is -1.66.
Compound `C=C1/C(=C\C=C2/CCC[C@]3(C)[C@@H]([C@H](C)CCCC(C)C)CC[C@@H]23)C[C@@H](O)C[C@@H]1O` [Alfacalcidol] gave a total cell number of -17.2.
The same measure for `NC/C=C/C(=O)O` [(E)-4-amino-2-butenoic acid]: -1.89; for `CN(C)C/C=C(/c1ccc(Br)cc1)c1cccnc1` [Zimelidine dihydrochloride]: -5.1.
As for `CCOc1ccc2ccccc2c1C(=O)N[C@@H]1C(=O)N2[C@@H]1SC(C)(C)[C@@H]2C(=O)O` [Nafcillin Sodium], the figure is 0.904.
The same measure for `CCN(CC)CCNC(=O)c1cc(Cl)c(N)cc1OC` [Metoclopramide hydrochloride]: -0.654; for `NCCCNCCCCNCCCN` [Spermine tetrahydrochloride]: -0.619; for `CC1=NN(c2ccccc2)C(=O)C1` [Edaravone]: -0.664.
`Cn1cnc2c1c(=O)[nH]c(=O)n2C` [Theobromine] yielded a total cell number of 0.0968 ± 1.4.
As for `Cc1c(-c2ccccc2)oc2c(C(=O)OCCN3CCCCC3)cccc2c1=O` [Flavoxate HCl], the figure is 0.0683; as for `CC(C)C[C@@H](C(=O)N[C@H](C(=O)OC1CCCC1)c1ccccc1)[C@H](O)C(=O)NO` [Tosedostat (CHR2797)], -8.26.
The same measure for `COc1ccc(O)cc1` [Mequinol]: -2.09; for `Cc1cc(Nc2ncc3cc(-c4c(Cl)cccc4Cl)c(=O)n(C)c3n2)ccc1F`: -10.8.
The same measure for `CCCCCCOC(=O)NC(=N)c1ccc(NCc2nc3cc(C(=O)N(CCC(=O)OCC)c4ccccn4)ccc3n2C)cc1` [Dabigatran Etexilate]: -5.12; for `OC[C@H]1NC[C@H](O)[C@@H](O)[C@@H]1O` [1-Deoxynojirimycin hydrochloride]: -0.443.
`Cc1cc(C)c(CNC(=O)c2cc(-c3ccc(CN4CCOCC4)cc3)cc3c2cnn3C2CCCC2)c(=O)[nH]1` yielded a total cell number of 7.3.
For `CC1(C)O[C@H]2CC(=O)OC[C@]23[C@H]2CC[C@@]4(C)[C@H](c5ccoc5)OC(=O)[C@H]5O[C@]54[C@]2(C)C(=O)C[C@@H]13` [Limonin], the total cell number is -2.65.
`COc1ccc(Cn2ccc3ccc(C(=O)NO)cc32)cc1`: the total cell number is -5.76.
As for `C#Cc1cccc(Nc2ncnc3cc(OCCOC)c(OCCOC)cc23)c1` [Erlotinib HCl (OSI-744)], the figure is -16.6.
The same measure for `Cc1onc(-c2ccccc2Cl)c1C(=O)N[C@@H]1C(=O)N2[C@@H]1SC(C)(C)[C@@H]2C(=O)O` [Cloxacillin Sodium]: -1.25; for `COC(=O)C1=CO[C@@H](O[C@@H]2O[C@H](CO)[C@@H](O)[C@H](O)[C@H]2O)[C@@H]2C(CO)=CC[C@H]12` [Geniposide]: 0.365.
With `Cn1c(=O)c2[nH]c(-c3ccccc3)nc2n(C)c1=O` [1,3-Dimethyl-8-phenylxanthine], the total cell number is -1.44.
`CN[C@@H]1[C@H](O)[C@H](NC)[C@H]2O[C@@]3(O)C(=O)C[C@@H](C)O[C@H]3O[C@@H]2[C@H]1O` [Spectinomycin HCl] had a total cell number of -0.251.
Regarding `O.O=[Si]=O.O=[Si]=O.O=[Si]=O.O=[Si]=O.[O]=[Mg].[O]=[Mg].[O]=[Mg]`, the total cell number is -1.76.
As for `NS(=O)(=O)c1cc2c(cc1Cl)NC(C(Cl)Cl)NS2(=O)=O` (stereo unspecified) [Trichlormethiazide], the figure is -2.72; as for `NC(=O)c1cnc(N[C@@H]2CCCC[C@@H]2N)nc1Nc1cccc(-n2nccn2)c1`, -12.
The same measure for `CN[C@H](CC(=O)O)C(=O)O` [N-Methyl-D-aspartic acid]: -1.02.
The same measure for `NC(N)=NC(N)=Nc1cccc(Cl)c1` [1-(m-Chlorophenyl)-biguanide hydrochloride]: -1.53; for `Cc1c(OCC(F)(F)F)ccnc1C[S@@+]([O-])c1nc2ccccc2[nH]1` [Dexlansoprazole]: 9.33.
Compound `CC(C(=O)O)c1ccc(-c2ccccc2)c(F)c1` (stereo unspecified) [Flurbiprofen] yielded a total cell number of -1.97.
The same measure for `NC(=O)c1cn(Cc2c(F)cccc2F)nn1` [Rufinamide]: -3.42 ± 2.6; for `Cc1cc(O)c2c(c1)C(=O)c1cccc(O)c1C2=O` [Chrysophanic Acid]: -0.456.
As for `COc1cc2c(N3CCN(C(=O)Nc4ccc(OC(C)C)cc4)CC3)ncnc2cc1OCCCN1CCCCC1` [Tandutinib (MLN518)], the figure is -10.3.
The same measure for `CC(=O)O[C@H]1CC[C@@]2(C)C(=CC[C@@H]3[C@@H]2CC[C@]2(C)C(c4cccnc4)=CC[C@@H]32)C1` [Abiraterone Acetate]: -0.749.
Turning to `Cc1ccccc1C(=O)Nc1ccc(C(=O)N2CCCC(O)c3cc(Cl)ccc32)c(C)c1` (stereo unspecified) [Tolvaptan], the total cell number was -0.544.
The same measure for `CC[N+](CC)(CC)CCOc1ccc(/C=C/c2ccccc2)cc1`: -9.16; for `CN(C)C(=O)C(CCN1CCC(O)(c2ccc(Cl)cc2)CC1)(c1ccccc1)c1ccccc1` [Loperamide hydrochloride]: -7.72; for `CN(C)C(=O)C(CCN1CCC(O)(c2ccc(Cl)cc2)CC1)(c1ccccc1)c1ccccc1` [Loperamide HCl]: -10.8.
The same measure for `Cc1cccc(C)c1NC(=O)C(C)N` (stereo unspecified) [Tocainide hydrochloride]: -0.826; for `C=CCc1cccc(/C=N/NC(=O)CN2CCN(Cc3ccccc3)CC2)c1O`: -9.01 ± 1.4; for `CC(C(=O)O)c1ccc2c(c1)[nH]c1ccc(Cl)cc12` (stereo unspecified) [Carprofen]: -0.446.
Turning to `O=C(Nc1cccc(C(F)(F)F)c1)Nc1cc(S(=O)(=O)NC2CC2)ccc1-c1ccsc1`, the total cell number amounted to 3.6.
The same measure for `O=C1c2c(O)cccc2C([C@@H]2O[C@H](CO)[C@@H](O)[C@H](O)[C@H]2O)c2cc(CO)cc(O)c21` (stereo partly specified) [Aloin]: -12.6; for `Cc1cc(/C=C/C#N)cc(C)c1Nc1ccnc(Nc2ccc(C#N)cc2)n1` [Rilpivirine]: -9.09.
As for `C=C1C(=O)[C@]23[C@H](O)[C@H]1CC[C@H]2[C@@]12CO[C@]3(O)[C@@H](O)[C@@H]1C(C)(C)CC[C@@H]2O` [Oridonin], the figure is -14.2.
The same measure for `Cc1c(N(C)C)c(=O)n(-c2ccccc2)n1C` [Amidopyrine]: 0.739.
`CCCc1c(-c2ccc(O)cc2)nn(-c2ccc(O)cc2)c1-c1ccc(O)cc1` [1,3,5-tris(4-hydroxyphenyl)-4-propyl-1H-pyrazole]: the total cell number was -0.0399.
The same measure for `CCOc1cc2ncc(C#N)c(Nc3ccc(F)c(Cl)c3)c2cc1NC(=O)/C=C/CN(C)C` [Pelitinib (EKB-569)]: -27.4; for `COc1ccc(/C=C/C(=O)Nc2ccccc2C(=O)O)cc1OC` [Tranilast]: -0.221 ± 0.67.
The same measure for `CCN(CC)CCNC(=O)c1c(C)[nH]c(/C=C2\C(=O)Nc3ccc(F)cc32)c1C` [Sunitinib malate]: -11.2; for `CCN(CC)CCNC(=O)c1c(C)[nH]c(/C=C2\C(=O)Nc3ccc(F)cc32)c1C` [Sunitinib Malate]: -26.5.
As for `Oc1ccc(/C=C/c2cc(O)cc(O)c2)cc1` [Resveratrol], the figure is -2.54 ± 1; as for `CCN(CC)Cc1ccc(C(=O)N(CCc2ccccc2OC)[C@@H]2CCNC2)cc1`, -5.47; as for `CCOC(=O)C1=C(COCCN)NC(C)=C(C(=O)OC)C1c1ccccc1Cl` (stereo unspecified) [Amlodipine], -16.4.
The compound `CN1[C@@H]2CC[C@H]1C[C@@H](OC(=O)c1c[nH]c3ccccc13)C2` [Tropisetron] gave a total cell number of 0.67.
The same measure for `COc1ccccc1N1CCN(CCCCN2C(=O)c3ccccc3C2=O)CC1` [NAN-190 hydrobromide]: -2.62; for `Cc1cccc(C)c1OCC(C)N` (stereo unspecified) [Mexiletine HCl]: -2.12; for `Cc1cccc(C)c1OCC(C)N` (stereo unspecified) [Mexiletene hydrochloride]: -1.4.
The same measure for `COc1ccccc1OCC(O)CO` (stereo unspecified) [Guaifenesin]: 0.348; for `CC[C@]1(O)C[C@H]2CN(CCc3c([nH]c4ccccc34)[C@@](C(=O)OC)(c3cc4c(cc3OC)N(C=O)[C@H]3[C@@](O)(C(=O)OC)[C@H](OC(C)=O)[C@]5(CC)C=CCN6CC[C@]43[C@@H]65)C2)C1` [Vincristine]: -3.41; for `CC[C@]1(O)C[C@H]2CN(CCc3c([nH]c4ccccc34)[C@@](C(=O)OC)(c3cc4c(cc3OC)N(C=O)[C@H]3[C@@](O)(C(=O)OC)[C@H](OC(C)=O)[C@]5(CC)C=CCN6CC[C@]43[C@@H]65)C2)C1` [Vincristine sulfate]: -1.63.
`NC[C@@H]1O[C@H](O[C@H]2[C@@H](O)[C@H](O[C@@H]3[C@@H](O)[C@H](N)C[C@H](N)[C@H]3O[C@H]3O[C@H](CO)[C@@H](O)[C@H](O)[C@H]3N)O[C@@H]2CO)[C@H](N)[C@@H](O)[C@@H]1O` [Paromomycin sulfate] gave a total cell number of -0.353.
`Nc1nc(CC(=O)Nc2ccc(CCNC[C@H](O)c3ccccc3)cc2)cs1` [Mirabegron] registered a total cell number of -2.27.
The same measure for `CC(=O)[C@H]1CC[C@H]2[C@@H]3C=CC4=CC(=O)CC[C@@]4(C)[C@@H]3CC[C@]12C` [Dydrogesterone]: -2.82.

Source of the values: the supplement of paper PMC6135742.
